The whole screen tested about 310,000 compounds, of which about 14,000 (4.5%) showed an effect of 50% or more. Effects have a minus sign here. This is one part of the list.
Biological target: human ether-à-go-go-related gene (hERG) potassium channel (human, UniProt Q12809)
Assay: primary screen, population patch clamp on CHO cells stably expressing hERG
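Also: peak tail current of the secondary pulse compared with the same well before compound.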

Chain of human ether-à-go-go-related gene (hERG) potassium channel (Q12809 whole entry, looked up): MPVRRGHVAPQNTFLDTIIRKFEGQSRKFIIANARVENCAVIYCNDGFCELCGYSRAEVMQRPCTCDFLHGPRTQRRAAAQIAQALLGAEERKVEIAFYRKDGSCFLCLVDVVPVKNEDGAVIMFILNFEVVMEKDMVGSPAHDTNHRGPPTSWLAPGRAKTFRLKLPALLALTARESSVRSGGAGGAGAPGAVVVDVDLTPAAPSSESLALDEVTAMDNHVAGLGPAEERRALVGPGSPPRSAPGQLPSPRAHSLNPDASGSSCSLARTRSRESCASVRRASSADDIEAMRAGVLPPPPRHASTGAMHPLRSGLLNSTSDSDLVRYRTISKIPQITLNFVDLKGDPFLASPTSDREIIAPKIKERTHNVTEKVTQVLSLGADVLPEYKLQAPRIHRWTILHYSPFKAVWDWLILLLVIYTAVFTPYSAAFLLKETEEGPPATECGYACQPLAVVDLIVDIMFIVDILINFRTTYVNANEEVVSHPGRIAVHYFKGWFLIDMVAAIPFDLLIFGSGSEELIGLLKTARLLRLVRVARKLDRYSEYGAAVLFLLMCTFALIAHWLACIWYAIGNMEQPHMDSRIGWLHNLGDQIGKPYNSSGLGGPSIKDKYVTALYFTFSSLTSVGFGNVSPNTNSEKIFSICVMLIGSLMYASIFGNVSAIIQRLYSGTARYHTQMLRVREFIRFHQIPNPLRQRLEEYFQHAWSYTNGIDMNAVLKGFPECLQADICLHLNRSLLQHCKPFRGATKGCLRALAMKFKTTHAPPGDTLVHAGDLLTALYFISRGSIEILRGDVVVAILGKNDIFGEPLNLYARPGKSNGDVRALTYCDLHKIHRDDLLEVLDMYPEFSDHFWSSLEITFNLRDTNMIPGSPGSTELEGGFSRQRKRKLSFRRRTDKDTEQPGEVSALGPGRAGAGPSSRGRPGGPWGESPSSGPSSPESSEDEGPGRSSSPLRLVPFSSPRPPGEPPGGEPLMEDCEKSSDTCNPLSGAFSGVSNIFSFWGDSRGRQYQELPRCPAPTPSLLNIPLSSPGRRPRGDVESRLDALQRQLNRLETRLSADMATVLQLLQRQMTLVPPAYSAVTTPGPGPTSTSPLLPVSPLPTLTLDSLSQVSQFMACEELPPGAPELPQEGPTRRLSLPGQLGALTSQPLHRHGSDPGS

Going from `O=C(CSc1nnc2ccccn12)N1CCc2ccccc2C1` to `NC(=O)NC(=O)CSc1nnc(-c2ccco2)n1Cc1ccccc1`, the “hERG current change (%, negative = inhibition) at 10uM” value rises from 2.72% to 5.78%.

First: CCNC(=S)N1CCC(n2cnc3ccccc32)CC1
Second: O=C(NCC(=O)N1CCN(c2ccccc2O)CC1)c1ccc(Br)o1
The “hERG current change (%, negative = inhibition) at 10uM” value of the first is lower: -20.8% for the first, -4.93% for the second.

Going from `CSc1ccc(CN2CCN(Cc3ccccc3)C(CCO)C2)cc1` (stereo not drawn) to `Cc1ccc(CC(=O)N2CCC(c3nc4c(nnn4Cc4ccccc4)c(=O)[nH]3)CC2)cc1`, the “hERG current change (%, negative = inhibition) at 10uM” value rises from -56.8% to -22.7%.

Going from `CC1=C(C(=O)OC(C)C)C(c2ccccc2)NC(=O)N1C` (stereo not drawn) to `COc1ccccc1C1NC(=O)NC(C)=C1C(C)=O` (stereo not drawn), the “hERG current change (%, negative = inhibition) at 10uM” value falls from 11.3% to -13.8%.

Compared with `Cc1nn(CC(=O)N2CCCC2)c(=O)c2cc3cc(F)ccc3n12`, `Nc1cc(=O)[nH]c(SCC(=O)N2CCN(S(=O)(=O)c3ccc4ccccc4c3)CC2)n1` is higher in “hERG current change (%, negative = inhibition) at 10uM” value: -3.41% for the first, 12.6% for the second.

Going from `O=C(Nc1ccc(Br)cc1)N1C[C@H]2C[C@@H](C1)c1cccc(=O)n1C2` to `COc1ccc(CNC(=O)C2CCN(C(=O)c3cccc(Cl)c3)CC2)cc1`, the “hERG current change (%, negative = inhibition) at 10uM” value falls from -0.768% to -44.9%.

Compared with `Cc1cc(C)c(NC(=O)COC(=O)C2CCC2)c(Cl)c1`, `Cc1cc(C)c(NC(=O)CCN2CCN(Cc3ccccc3)CC2)c(C)c1` is lower in “hERG current change (%, negative = inhibition) at 10uM” value: 22.8% for the first, -33% for the second.

Compared with `Cc1ccc(/C=C2\SC(=S)N(CCCC(=O)Nc3cccnc3)C2=O)cc1`, `O=C(CCn1cnc(-c2ccccc2)c1-c1ccccc1)N/N=C/c1ccc(O)cc1` is lower in “hERG current change (%, negative = inhibition) at 10uM” value: 0.424% for the first, -23.9% for the second.

Going from `COc1ccccc1C(=O)Nc1ccc2c(c1)nc1n2CCN(Cc2ccccc2)C1` to `O=C1COC(c2ccccc2)=CN1Cc1ccccc1`, the “hERG current change (%, negative = inhibition) at 10uM” value rises from -10% to -4.61%.

First: COc1ccc(OCc2nnc(SCC(=O)N3C(C)CCCC3C)o2)cc1 (stereo not drawn)
Second: COc1ccc(C(=O)CSc2nc(-c3ccccn3)nc(C)c2Cl)cc1
The “hERG current change (%, negative = inhibition) at 10uM” value of the first is lower: -14.7% for the first, 6.42% for the second.

Compared with `CC(C(=O)Nc1ccccc1C(=O)O)n1c(C(F)(F)F)nc2ccccc21` (stereo not drawn), `CCOCCCNC(=O)C(NC(=O)c1ccccc1O)c1ccccc1` (stereo not drawn) is lower in “hERG current change (%, negative = inhibition) at 10uM” value: 8.68% for the first, 7.92% for the second.

Compared with `COc1ccccc1CNC(=O)CCNC(=O)Cn1cnc2ccccc2c1=O`, `Cc1cccnc1NC(=O)CNC(=O)c1sc2ccccc2c1Cl` is lower in “hERG current change (%, negative = inhibition) at 10uM” value: 12.1% for the first, -0.683% for the second.

Going from `Cc1cc(C)c(S(=O)(=O)N(C)c2ccccc2)c(C)c1` to `Cc1cc(C)c2cc(C#N)c(N3CCCN(S(=O)(=O)c4ccccc4)CC3)nc2c1`, the “hERG current change (%, negative = inhibition) at 10uM” value rises from -3.24% to 2.07%.

Compared with `COc1ccc(Cc2nnc(Nc3ccccc3OC)[nH]c2=O)cc1`, `COc1ccc(C2CC(c3ccc(OC)cc3O)=NN2C(=O)c2ccccc2)cc1` (stereo not drawn) is lower in “hERG current change (%, negative = inhibition) at 10uM” value: 10.6% for the first, 8.48% for the second.

First: Cc1ccccc1C(C(=O)NC1CCCCC1)N(C(=O)c1ccccn1)c1cccnc1 (stereo not drawn)
Second: O=C(c1ccc(S(=O)(=O)N2CCCCC2)cc1)N1CCN=C1SCc1cccnc1
The “hERG current change (%, negative = inhibition) at 10uM” value of the first is higher: 5.92% for the first, -4.75% for the second.

Going from `Cc1ccc(C)c(S(=O)(=O)N2CCN(C(=O)c3cnccn3)CC2)c1` to `CCN1CCN(C(=O)CN(C)S(=O)(=O)c2ccc(OC)c(C)c2)CC1`, the “hERG current change (%, negative = inhibition) at 10uM” value falls from 1.38% to -13.6%.

First: CC(=O)NNC(=O)c1sc(=S)n2c1[nH]c(=O)c1sccc12
Second: CCn1cc(C(=O)Nc2cccc(NC(C)=O)c2)c2cc(OC)c(OC)cc2c1=O
The “hERG current change (%, negative = inhibition) at 10uM” value of the first is higher: 18.7% for the first, 10.3% for the second.

Going from `CC1CC(=O)Nc2ccccc2N1C(=O)CN1CCN(C=O)CC1` (stereo not drawn) to `COc1ccc(N2CCN(C(=O)CCNS(=O)(=O)c3ccccc3)CC2)cc1`, the “hERG current change (%, negative = inhibition) at 10uM” value falls from 12.4% to -4.25%.

Compared with `CN(C)c1ccc(CNC(=O)c2cc(S(=O)(=O)N3CCOCC3)cn2C)cc1`, `COc1ccc(Br)cc1/C=N/NC(=O)c1cccc(S(=O)(=O)N2CCOCC2)c1` is higher in “hERG current change (%, negative = inhibition) at 10uM” value: -7.48% for the first, 11.6% for the second.

First: CC(C)CCNC(=O)C1(O)c2ccccc2NC(=O)N1c1ccc(Cl)cc1 (stereo not drawn)
Second: O=C(O)Cc1nn(Cc2ccc(Cl)cc2)c(=O)c2ccccc12
The “hERG current change (%, negative = inhibition) at 10uM” value of the first is lower: 18.9% for the first, 20.6% for the second.

Going from `N#Cc1c(-c2cccs2)cc(C2CC2)nc1SCC(N)=O` to `COc1ccc(C2CC(c3cccs3)=NN2C(=O)c2ccc(Br)o2)cc1` (stereo not drawn), the “hERG current change (%, negative = inhibition) at 10uM” value rises from -0.255% to 8.76%.

Compared with `O=C(CSc1ccc(F)cc1)NCCc1ccc(Cl)cc1`, `Cc1ccc(S(=O)(=O)NCc2ccc(C(=O)N3CCCC3)cc2)cc1` is lower in “hERG current change (%, negative = inhibition) at 10uM” value: 0.223% for the first, -7.85% for the second.

First: CCN(CCn1cccn1)C(=O)CC1C(=O)NCCN1Cc1ccc(F)c(F)c1 (stereo not drawn)
Second: CC1(C)Cc2c(cnn2-c2cccc(F)c2)C(NC(=O)CCN2CCCC2=O)C1 (stereo not drawn)
The “hERG current change (%, negative = inhibition) at 10uM” value of the first is higher: 9.44% for the first, -3.51% for the second.

Going from `COc1ccccc1NC(=O)C(C/C=C(/C)Cl)C(C)=O` (stereo not drawn) to `COc1ccc(C(=O)N/N=C(\C)c2ccccn2)cc1OC`, the “hERG current change (%, negative = inhibition) at 10uM” value falls from -8.18% to -17.2%.

First: CC1Cc2ccccc2N1c1ncnc2nc[nH]c12 (stereo not drawn)
Second: COc1ccc2nc3ccccc3nc2c1N
The “hERG current change (%, negative = inhibition) at 10uM” value of the first is lower: -6.58% for the first, 4.42% for the second.

Going from `CN(Cc1ccccc1)C(=O)c1ccccc1Br` to `O=C(Nc1ccc(Cl)cc1C(=O)c1ccccc1)c1ccco1`, the “hERG current change (%, negative = inhibition) at 10uM” value rises from -6.53% to 8.38%.

Going from `Cc1nc(Cl)sc1C(=O)Nc1cccc(Cl)c1C` to `COc1ccc2nc(NC(=O)c3cccc(-c4cc5ccccc5oc4=O)c3)sc2c1`, the “hERG current change (%, negative = inhibition) at 10uM” value rises from -2.08% to 5.56%.

Going from `O=C(NC(=S)NNC(=O)c1ccco1)c1ccc(Br)cc1` to `CCN(CC)S(=O)(=O)c1cccc(C(=O)NCC(=O)OCC(=O)NCc2ccccc2)c1`, the “hERG current change (%, negative = inhibition) at 10uM” value falls from 15.6% to -7.41%.

Compared with `CC(=O)N(Cc1cc2cc(C)ccc2[nH]c1=O)c1cccc(C)c1C`, `CC1=CC(=O)C=C(C)C1=NOc1ccc([N+](=O)[O-])cc1` is lower in “hERG current change (%, negative = inhibition) at 10uM” value: 21.6% for the first, -3.45% for the second.

Compared with `COc1cc(-c2ccc(=O)[nH]n2)ccc1OC(F)F`, `CCOc1oc(-c2ccc(OC)cc2)nc1C(F)(F)F` is lower in “hERG current change (%, negative = inhibition) at 10uM” value: -0.566% for the first, -1.8% for the second.

First: CCOc1cc(/C=N/NC(=S)Nc2ccccc2C(F)(F)F)ccc1OCC(=O)N1CCOCC1
Second: CC1=C(C(=O)Nc2cccc(C(=O)N3CCN(c4cccc(C(F)(F)F)c4)CC3)c2)SCCO1
The “hERG current change (%, negative = inhibition) at 10uM” value of the first is higher: -8.18% for the first, -11% for the second.

First: O=C(O)C1CCCCC1C(=O)Nc1nccs1 (stereo not drawn)
Second: Cc1ccc(S(=O)(=O)N(C)C)cc1NC(=O)C1CCCN(C(=O)c2ccc(Cl)cc2)C1 (stereo not drawn)
The “hERG current change (%, negative = inhibition) at 10uM” value of the first is higher: 3.38% for the first, -22.2% for the second.

First: CCOC(=O)/C=C/C(=O)Nc1cccc([N+](=O)[O-])c1
Second: CCOC(=O)N1CCC(N(CCOC)C(=S)Nc2cccc(SC)c2)CC1
The “hERG current change (%, negative = inhibition) at 10uM” value of the first is higher: -7.8% for the first, -27.2% for the second.

Compared with `O=C(NC1CCCc2ccccc21)c1ccc2c(c1)OCO2` (stereo not drawn), `Nc1cc(S(=O)(=O)Nc2ccccc2Cl)ccc1N1CCOCC1` is higher in “hERG current change (%, negative = inhibition) at 10uM” value: -15.8% for the first, -4.06% for the second.

First: Cc1cc(C)n(CC(O)COc2ccccc2)n1 (stereo not drawn)
Second: CC(CC(=O)O)CC1=NS(=O)(=O)c2ccccc2N1 (stereo not drawn)
The “hERG current change (%, negative = inhibition) at 10uM” value of the first is lower: 12.9% for the first, 16.2% for the second.

Going from `N#C/C(=C(/O)C(Cl)(Cl)Cl)c1nc2ccccc2[nH]1` to `Cc1ccccc1-c1nc(S(=O)(=O)c2ccc(Cl)cc2)c(NCCN2CCOCC2)o1`, the “hERG current change (%, negative = inhibition) at 10uM” value falls from 8.77% to -20.2%.

Going from `O=C(CNC(=O)c1ccc(Br)o1)NC12CC3CC(CC(C3)C1)C2` to `C=C(C)C(=O)Nc1cccc(C2=NOC3(C2)C[C@@H](C(N)=O)N(C(=O)C2(C)CC2)C3)c1` (stereo partly drawn), the “hERG current change (%, negative = inhibition) at 10uM” value falls from 6.39% to 5.65%.

Going from `Cc1ccc(NCN2C(=O)C3C4CCC(C4)C3C2=O)cc1` (stereo not drawn) to `COc1ccc(NC(=O)CSc2ccc([N+](=O)[O-])cc2)cc1S(=O)(=O)N1CCOCC1`, the “hERG current change (%, negative = inhibition) at 10uM” value falls from 12% to -38.5%.

First: CC1Cc2cc(/C(O)=C3/C(=O)C(=O)N(CCN4CCOCC4)C3c3ccc([N+](=O)[O-])cc3)ccc2O1 (stereo not drawn)
Second: CCN1C(=O)C2(C(C(=O)c3cc4ccccc4o3)=C(O)C(=O)N2CCCN(C)C)c2ccccc21 (stereo not drawn)
The “hERG current change (%, negative = inhibition) at 10uM” value of the first is lower: -5.63% for the first, 5.25% for the second.

Going from `O=C(O)C(=O)O.O=S(=O)(c1cccc(Cl)c1Cl)N1CCN(C(=S)NCCCN2CCOCC2)CC1` to `CCN1CCN(c2ccc(S(=O)(=O)N3CCCCC3)cc2NC(=O)c2cccc(C)c2)CC1`, the “hERG current change (%, negative = inhibition) at 10uM” value falls from -19.7% to -37.4%.

Compared with `COc1ccc(S(=O)(=O)Nc2cccc(-n3cnnn3)c2)cc1`, `COCc1ccc(C(=O)N2CCCC(C(=O)c3cccc(C(F)(F)F)c3)C2)o1` (stereo not drawn) is lower in “hERG current change (%, negative = inhibition) at 10uM” value: 1.11% for the first, -0.276% for the second.

First: COC1=Cc2c(ccc3ccc(=O)oc23)OC1(C)C
Second: CC1(C)O[C@H]2CC(=O)OC[C@@]23C1CC(=O)[C@]1(C)C3CC[C@@]2(C)[C@H](c3ccoc3)OC(=O)[C@H]3O[C@]321 (stereo partly drawn)
The “hERG current change (%, negative = inhibition) at 10uM” value of the first is higher: 2.36% for the first, -10.6% for the second.

First: CN1C(=O)COc2c(C(=O)NC3CN4CCC3CC4)cc(Cl)cc21.Cl (stereo not drawn)
Second: COc1cccc(C2(O)CCN(C(=O)C3CCC3)CC2)c1
The “hERG current change (%, negative = inhibition) at 10uM” value of the first is lower: -1.33% for the first, 22.4% for the second.

For `Cn1c(=O)c2nncnc2n(C)c1=O`, the “hERG current change (%, negative = inhibition) at 10uM” value was 4.62%.
